According to PubChem BioAssay AID1671194 (National Center for Advancing Translational Sciences (NCATS), 2021):
Out of some 140,000 compounds screened, about 240 (0.17%) were called active. Inconclusive results, whose numbers are uncertain, are shown with a selection of clear calls. Calls come from the whole dose curve; as a rule, active = well fitted inhibition curve with a large enough effect; inconclusive = small, poorly fitted or top-dose-only effect; inactive = no such curve, though single readings can be large or run the other way. Potencies beside an inconclusive call are fits to weak or partial responses and may not hold up.

Experiment: Primary qHTS assay for inhibitors of alpha-synuclein gene (SNCA) expression; note: nearly all actives have a fitted effect of over 45% in size
Conditions: HEK-293 SNCA-luciferase knock-in, luminescence, 24 h; series mostly up to 57.2 µM
Potency is the fitted concentration of half-maximal effect; tags give direction and shape of the fitted curve.

| SMILES | Potency |
| --- | --- |
| Cc1cc(C)n(CCC(=O)N2CCCC(c3nnnn3-c3ccccc3)C2)n1 (stereo not drawn) | inactive |
| O=C(NCc1cccs1)C1=NO[C@@H]2CN(c3cccnc3)C[C@H]12 | inconclusive: 0.891 µM [inhibitor, full curve, poor fit] |
| O=C(NCC(=O)N1CCC(Cc2ccccc2)CC1)c1ccc(-c2cnc3ccccc3c2)cc1 | inconclusive: 14.1 µM [inhibitor, partial curve, poor fit] |
| COc1ccc(S(=O)(=O)N2CCc3c(C(=O)NCCc4cccs4)cccc32)cc1 | inactive |
| Cc1cc(C)c(NC(=O)CSc2nc(C)cc(C)c2C#N)c(C)c1 | inconclusive: 3.55 µM [inhibitor, single point] |
| CNc1ncccc1C(=O)N1CCc2nc(-c3cn[nH]c3)[nH]c2C1 | inactive |
| COc1ccc(-c2ccnc(N[C@H]3CO[C@H]4[C@@H]3OC[C@@H]4NC(=O)NCc3ccccc3)n2)cc1 | inconclusive: 31.6 µM [inhibitor, single point] |
| Cc1ccc(C)c(CNC(=O)c2ccc3c(c2)N(S(=O)(=O)c2ccccc2)CC3)c1 | inconclusive: 1.78 µM [inhibitor, partial curve, poor fit] |
| COc1ccc(OC)c(CCNC(=O)c2cc3c(-c4ccccc4F)nn(C)c3s2)c1 | inconclusive: 39.8 µM [inhibitor, single point] |
| COc1ccc(C(=O)N2CCC(C(=O)N3CCCCCCNC(=O)CC3)CC2)cc1 | inactive |
| CCCCNC(=O)c1cccc(-c2cc(N3CCN(C)CC3)nc(N)n2)c1 | inconclusive: 39.8 µM [inhibitor, single point] |
| CCc1ccc(C(=O)NC2CCN(c3cnn(CCOC)c(=O)c3)CC2)cc1 | inconclusive: 15.8 µM [inhibitor, single point] |
| Cc1nonc1CN1CCN(c2cc(C3CC(N)C3)nc(N)n2)CC1 (stereo not drawn) | inconclusive: 25.1 µM [inhibitor, single point] |
| COc1cccc(C2C(C(=O)Nc3ccc(C)cc3C)=C(C)Nc3c(C(=O)Nc4cccc(C)c4)cnn32)c1OC (stereo not drawn) | inconclusive: 39.8 µM [inhibitor, single point] |
| Cc1cccc(OCC(=O)N(Cc2sccc2C)C2CCS(=O)(=O)C2)c1 (stereo not drawn) | inconclusive: 39.8 µM [inhibitor, single point] |
| COc1ccc(C(=O)N2CCN(Cc3ccc(=O)n(C)c3)CC2)cn1 | inconclusive: 8.91 µM [inhibitor, single point] |
| O=C(c1ccc(Cl)cc1)N1CCC([C@@H]2CNC[C@H]2CO)CC1 | inactive |
| Cc1nc(CN2Cc3nc(-c4cc5ccccc5o4)ccc3OCC2=O)cs1 | inconclusive: 1.12 µM [inhibitor, full curve, poor fit] |
